Experimental data taken from the supplement of paper PMC12217912.
The other results are listed elsewhere or left out. The full chains were built here from the parent and the listed change. Inactive controls read about 0.05.

B1: TEV protease; numbered along this chain (parent)
chain: MGESLFKGPRDYNPISSSICHLTNESDGHTTSLYGIGFGPFIITNKHLFRRNNGTLVVQSLHGVFKVKDTTTLQQHLVDGRDMIIIRMPKDFPPFPQKLKFREPQREERICLVTTNFQTKSMSSMVSDTSCTFPSGDGIFWKHWIQTKDGQCGSPLVSTRDGFIVGIHSASNFTNTNNYFTSVPKNFMELLTNQEAQQWVSGWRLNADSVLWGGHKVFMVKPEEPFQPVKEATQL

Variants of: B1
Experiment: raw area under fraction-flipped curve 0-4 h after induction (AUC4h, not background-subtracted), DNA-recorder readout of cleavage of the substrate (dimensionless); higher = more cleavage of the substrate by the protease variant
Details: temperature: 34 °C; time window: 0-4 h after rhamnose induction
Method: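 In vivo DNA recorder in E. coli TOP10(DE3) ΔrhaA at 34 °C. Each TEVp single-site mutant (parent TEVp 0) is paired with a single-site variant of the 7-mer TEVs (canonical ENLYFQ|S). The substrate sits between flexible linkers in a Bxb1-sfGFP-TEVs-SsrA fusion, so cleavage stabilises Bxb1 and speeds flipping of a recombination array, read by NGS. The value is the raw area under the fraction-flipped curve over 0-4 h after rhamnose induction (AUC4h), with ≥20 reads per time point. It is not background-subtracted; inactive controls average about 0.047.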
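Note: Bxb1 expression induced with 0.2% (w/v) L-rhamnose at OD600 near 0.5, cultures sampled hourly, flipped fraction per protease–substrate barcode pair counted by paired-end Illumina sequencing.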

Row | Variant | area with substrate ENLYFQA | area with substrate ENLYFQC | area with substrate ENLYFQG | area with substrate ENLYFQH | area with substrate ENLYFQI | area with substrate ENLYFQK | area with substrate ENLYFQL | area with substrate ENLYFQM | area with substrate ENLYFQN | area with substrate ENLYFQP | area with substrate ENLYFQS | area with substrate ENLYFQT | area with substrate ENLYFQV | area with substrate ENLYFQW | area with substrate ENLYFQY | area with substrate ENLYFQD | area with substrate ENLYFQE | area with substrate ENLYFQR | area with substrate ENLYFQF | area with substrate ENLYFQQ
1 | MGESLFKGPRDYNPISSSICHLTNESDGHTTSLYGIGFGPFIITNKHLFRRNNGTLVVQSLHGVFKVKDTTTLQQHLVDGRDMIIIRMPKDFPPFPQKLKFREPQREERLCLVTTNFQTKSMSSMVSDTSCTFPSGDGIFWKHWIQTKDGQCGSPLVSTRDGFIVGIHSASNFTNTNNYFTSVPKNFMELLTNQEAQQWVSGWRLNADSVLWGGHKVFMVKPEEPFQPVKEATQL [I110L] | 0.0991 | 0.0993 | 0.104 | 0.0924 | 0.0505 | 0.0583 | 0.0757 | 0.0942 | 0.0842 | 0.0522 | 0.119 | 0.0616 | 0.0703 | 0.0666 | – | – | – | – | – | –
2 | MGESLFKGPRDYNPISSSICHLTNESDGHTTSLYGIGFGPFIITNKHLFRRNNGTLVVQSLHGVFKVKDTTTLQQHLVDGRDMIIIRMPKDFPSFPQKLKFREPQREERICLVTTNFQTKSMSSMVSDTSCTFPSGDGIFWKHWIQTKDGQCGSPLVSTRDGFIVGIHSASNFTNTNNYFTSVPKNFMELLTNQEAQQWVSGWRLNADSVLWGGHKVFMVKPEEPFQPVKEATQL [P94S] | 0.0637 | 0.102 | 0.11 | – | 0.0739 | – | 0.0653 | – | 0.0667 | 0.0492 | 0.106 | 0.0699 | – | – | 0.0755 | – | – | – | – | –
3 | MGESLFKGPRDYNPISSSICHLTNESDGHTTSLYGIGFGPFIITNKHLFRRNNGTLVVQSLHGVFKVKDTTTLQQHLVDGRDMIIIRMPKDFPPFPQKLKCREPQREERICLVTTNFQTKSMSSMVSDTSCTFPSGDGIFWKHWIQTKDGQCGSPLVSTRDGFIVGIHSASNFTNTNNYFTSVPKNFMELLTNQEAQQWVSGWRLNADSVLWGGHKVFMVKPEEPFQPVKEATQL [F101C] | 0.0693 | 0.0825 | – | 0.0615 | 0.054 | 0.0592 | 0.0514 | 0.0518 | 0.0572 | – | 0.076 | 0.0547 | 0.0307 | 0.0556 | – | 0.0662 | 0.0477 | 0.057 | – | –
4 | MGESLFKGPRDYNPISSSICHLTNESDGHTTSLYGIGFGPFIITNKHLFRRNNGTLVVQSLHGVFKVKDTTTLQQHLVDGRDMIIIRMPKDFPPFPQKLKRREPQREERICLVTTNFQTKSMSSMVSDTSCTFPSGDGIFWKHWIQTKDGQCGSPLVSTRDGFIVGIHSASNFTNTNNYFTSVPKNFMELLTNQEAQQWVSGWRLNADSVLWGGHKVFMVKPEEPFQPVKEATQL [F101R] | 0.0555 | 0.0396 | 0.0437 | 0.0725 | 0.0544 | 0.0579 | 0.0382 | 0.0519 | – | – | 0.0552 | 0.0545 | 0.0404 | 0.0525 | 0.0432 | – | – | 0.0514 | 0.0423 | 0.0451
5 | MGESLFKGPRDYNPISSSICHLTNESDGHTTSLYGIGFGPFIITNKHLFRRNNGTLVVQSLHGVFKVKDTTTLQQHLVDGRDMIIIRMPKDFPPFPQKLKFREPQREERICLRTTNFQTKSMSSMVSDTSCTFPSGDGIFWKHWIQTKDGQCGSPLVSTRDGFIVGIHSASNFTNTNNYFTSVPKNFMELLTNQEAQQWVSGWRLNADSVLWGGHKVFMVKPEEPFQPVKEATQL [V113R] | 0.0382 | 0.084 | 0.0682 | 0.0637 | 0.0605 | 0.0649 | 0.0472 | 0.0493 | 0.0681 | 0.0665 | 0.0723 | 0.0616 | – | 0.0609 | 0.0611 | – | – | 0.0659 | 0.0622 | –
6 | MGESLFKGPRDYNPISSSICHLTNESDGHTTSLYGIGFGPFIITNKHLFRRNNGTLVVQSLHGVFKVKDTTTLQQHLVDGRDMIIIRMPKDFPPFPQKLKFREPQREERICLVTTNCQTKSMSSMVSDTSCTFPSGDGIFWKHWIQTKDGQCGSPLVSTRDGFIVGIHSASNFTNTNNYFTSVPKNFMELLTNQEAQQWVSGWRLNADSVLWGGHKVFMVKPEEPFQPVKEATQL [F117C] | 0.0999 | 0.131 | 0.087 | – | 0.0513 | 0.0759 | 0.0534 | 0.0574 | 0.074 | 0.044 | 0.103 | 0.0673 | – | 0.0694 | 0.0628 | – | – | 0.0602 | – | –
7 | MGESLFKGPRDYNPISSSICHLTNESDGHTTSLYGIGFGPFIITNKHLFRRNNGTLVVQSLHGVFKVKDTTTLQQHLVDGRDMIIIRMPKDFPPFPQKLKFREPQREERICLVTTNSQTKSMSSMVSDTSCTFPSGDGIFWKHWIQTKDGQCGSPLVSTRDGFIVGIHSASNFTNTNNYFTSVPKNFMELLTNQEAQQWVSGWRLNADSVLWGGHKVFMVKPEEPFQPVKEATQL [F117S] | 0.148 | 0.147 | – | 0.0855 | 0.0695 | 0.0728 | 0.067 | 0.083 | – | – | 0.11 | 0.0724 | 0.0504 | 0.0754 | – | – | – | 0.0643 | – | –
8 | MGESLFKGPRDYNPISSSICHLTNESDGHTTSLYGIGFGPFIITNKHLFRRNNGTLVVQSLHGVFKVKDTTTLQQHLVDGRDMIIIRMPKDFPPFPQKLKFREPQREFRICLVTTNFQTKSMSSMVSDTSCTFPSGDGIFWKHWIQTKDGQCGSPLVSTRDGFIVGIHSASNFTNTNNYFTSVPKNFMELLTNQEAQQWVSGWRLNADSVLWGGHKVFMVKPEEPFQPVKEATQL [E108F] | 0.0582 | 0.0559 | 0.0505 | – | – | 0.0489 | – | 0.057 | – | – | 0.0608 | 0.0454 | – | – | – | – | – | 0.0697 | – | –
9 | MGESLFKGPRDYNPISSSICHLTNESDGHTTSLYGIGFGPFIITNKHLFRRNNGTLVVQSLHGVFKVKDTTTLQQHLVDGRDMIIIRMPKDFPPFPQKLKFREPQREERICLVTLNFQTKSMSSMVSDTSCTFPSGDGIFWKHWIQTKDGQCGSPLVSTRDGFIVGIHSASNFTNTNNYFTSVPKNFMELLTNQEAQQWVSGWRLNADSVLWGGHKVFMVKPEEPFQPVKEATQL [T115L] | 0.0764 | – | – | 0.0942 | – | – | 0.0391 | 0.0857 | 0.0974 | 0.096 | 0.106 | 0.0606 | – | – | 0.0763 | – | – | – | 0.049 | –
